# Results as given in the supplement of paper PMC8728848.
# This is one part of the list.
# B1: CaSRK1 (Capsicum annuum) (protein)
# chain: MALCKIFPFAFILLSCSCYLISGQRFDYPTANLSTTWINSVSAPHSIDYTDGSRIRAILLRGTFGPRYACGFYCNGNCESYLFAIFIVQTNSASQITSPAIGFPQVVWSANRNNPVKINSTLQLTAEGDLVLRDADGTLAWSTNTAGKSVAGLSLTDEGNLALFDSKNATVWQSFDHPTDALVPGQKLVPGMKLTASVSRTNWTAGGLFALSAIDNGLVAFVESNPPQKYFEASVGGSNTSGGSNYVKYLNGSLTLFTHSADTTELILISITPASSAQYMKLESNGHLKVYEWTSRGWREVDDLLTGFRGECNYPTVCGRYGICTMGQCSCPTSSSSRTYFRPIDVRRPSLGCSEVTKLTCQNTKKHSPLEVEDVDYFAFKAGISDTDLNTCKRACLEKCSCKAAFFRSGLNSSRTRGDCYLPTEIFSIMNNEKDRTRYDSVAFIKVQV
# What was measured:
# Assay in all cases: glycan array binding signal (z-score within array); higher = stronger binding
# Conditions in all cases: glycan notation: IUPAC condensed, linker removed
# [1] = molecular target: Fuc(a1-2)[GalNAc(a1-3)]Gal(b1-4)Glc
# How it was run: (§1)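 Glycan array data were curated from 3228 arrays in the Consortium for Functional Glycomics database and kept only where the protein sequence was available. Glycan names were converted to IUPAC-condensed notation, and columns mapping to the same glycan were averaged. The binding signal is a within-array Z-score, averaged across arrays of the same protein sequence at different concentrations or buffers and across linkers. Negative Z-scores can be read as non-binding.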
# [2] = molecular target: Fuc(a1-2)[GalNAc(a1-3)]Gal(b1-4)GlcNAc
# How it was run: as §1
# [3] = molecular target: Fuc(a1-2)[GalNAc(a1-3)]Gal(b1-4)GlcNAc(b1-2)Man
# How it was run: as §1
# [4] = molecular target: Fuc(a1-2)[GalNAc(a1-3)]Gal(b1-4)GlcNAc(b1-2)Man(a1-3)[Fuc(a1-2)[GalNAc(a1-3)]Gal(b1-4)GlcNAc(b1-2)Man(a1-6)]Man(b1-4)GlcNAc(b1-4)GlcNAc
# How it was run: as §1
# [5] = molecular target: Fuc(a1-2)[GalNAc(a1-3)]Gal(b1-4)GlcNAc(b1-2)Man(a1-3)[Fuc(a1-2)[GalNAc(a1-3)]Gal(b1-4)GlcNAc(b1-2)Man(a1-6)]Man(b1-4)GlcNAc(b1-4)[Fuc(a1-6)]GlcNAc
# How it was run: as §1
# [6] = molecular target: Fuc(a1-2)[GalNAc(a1-3)]Gal(b1-4)GlcNAc(b1-3)Gal(b1-4)GlcNAc
# How it was run: as §1
# [7] = molecular target: Fuc(a1-2)[GalNAc(a1-3)]Gal(b1-4)GlcNAc(b1-3)Gal(b1-4)GlcNAc(b1-3)Gal(b1-4)GlcNAc
# How it was run: as §1
# [8] = molecular target: Fuc(a1-2)[GalNAc(a1-3)]Gal(b1-4)GlcNAc(b1-3)GalNAc
# How it was run: as §1
# [9] = molecular target: Fuc(a1-2)[GalNAc(a1-3)]Gal(b1-4)GlcNAc(b1-3)[Fuc(a1-2)[GalNAc(a1-3)]Gal(b1-4)GlcNAc(b1-6)]GalNAc
# How it was run: as §1
# [10] = molecular target: Fuc(a1-2)[GalNAc(a1-3)]Gal(b1-4)GlcNAc(b1-6)GalNAc
# How it was run: as §1
# [11] = molecular target: Fuc(a1-2)[GalNAc(a1-3)]Gal(b1-4)[Fuc(a1-3)]GlcNAc
# How it was run: as §1
# [12] = molecular target: Fuc(a1-2)[GalNAc(a1-3)]Gal(b1-4)[Fuc(a1-3)]GlcNAc(b1-3)GalNAc
# How it was run: as §1
# [13] = molecular target: Fuc(a1-2)[GalNAc(a1-4)]Gal(b1-4)GlcNAc
# How it was run: as §1
# [14] = molecular target: Fuc(a1-2)[GalNAc(b1-3)]Gal
# How it was run: as §1
# Fuc(a1-3)GlcNAc = molecular target: Fuc(a1-3)GlcNAc
# How it was run: as §1
# [15] = molecular target: Fuc(a1-3)[Gal(b1-4)]Glc6S
# How it was run: as §1
# [16] = molecular target: Fuc(a1-3)[Gal(b1-4)]GlcNAc
# How it was run: as §1
# [17] = molecular target: Fuc(a1-3)[Gal(b1-4)]GlcNAc(b1-2)Man
# How it was run: as §1
# [18] = molecular target: Fuc(a1-3)[Gal(b1-4)]GlcNAc(b1-2)Man(a1-3)[Fuc(a1-3)[Gal(b1-4)]GlcNAc(b1-2)Man(a1-6)]Man(b1-4)GlcNAc(b1-4)GlcNAc
# How it was run: as §1
# [19] = molecular target: Fuc(a1-3)[Gal(b1-4)]GlcNAc(b1-2)Man(a1-3)[Fuc(a1-3)[Gal(b1-4)]GlcNAc(b1-2)Man(a1-6)]Man(b1-4)GlcNAc(b1-4)[Fuc(a1-6)]GlcNAc
# How it was run: as §1
# [20] = molecular target: Fuc(a1-3)[Gal(b1-4)]GlcNAc(b1-3)Gal(b1-3)[Fuc(a1-4)]GlcNAc
# How it was run: as §1
# [21] = molecular target: Fuc(a1-3)[Gal(b1-4)]GlcNAc(b1-3)Gal(b1-4)[Fuc(a1-3)]GlcNAc
# How it was run: as §1
# [22] = molecular target: Fuc(a1-3)[Gal(b1-4)]GlcNAc(b1-3)Gal(b1-4)[Fuc(a1-3)]GlcNAc(b1-3)Gal(b1-4)[Fuc(a1-3)]GlcNAc
# How it was run: as §1
# [23] = molecular target: Fuc(a1-3)[Gal(b1-4)]GlcNAc(b1-3)GalNAc
# How it was run: as §1
# [24] = molecular target: Fuc(a1-3)[Gal(b1-4)]GlcNAc(b1-6)GalNAc
# How it was run: as §1
# [25] = molecular target: Fuc(a1-3)[Gal(b1-4)]GlcNAc(b1-6)[Gal(b1-3)GlcNAc(b1-3)]Gal(b1-4)Glc
# How it was run: as §1
# [26] = molecular target: Fuc(a1-3)[Gal(b1-4)]GlcNAc6S
# How it was run: as §1
# [27] = molecular target: Fuc(a1-3)[Gal3S(b1-4)]Glc
# How it was run: as §1
# [28] = molecular target: Fuc(a1-3)[Gal3S(b1-4)]GlcNAc
# How it was run: as §1
# [29] = molecular target: Fuc(a1-3)[Gal3S(b1-4)]GlcNAc6S
# How it was run: as §1
# [30] = molecular target: Fuc(a1-3)[GalNAc(b1-4)]GlcNAc
# How it was run: as §1
# [31] = molecular target: Fuc(a1-3)[GalNAc(b1-4)]GlcNAc6S
# How it was run: as §1
# Fuc(a1-4)GlcNAc = molecular target: Fuc(a1-4)GlcNAc
# How it was run: as §1
# Fuc(b1-3)GlcNAc = molecular target: Fuc(b1-3)GlcNAc
# How it was run: as §1
# Gal(a1-2)Gal = molecular target: Gal(a1-2)Gal
# How it was run: as §1
# Gal(a1-3)Gal = molecular target: Gal(a1-3)Gal
# How it was run: as §1
# Gal(a1-3)Gal(b1-3)GlcNAc = molecular target: Gal(a1-3)Gal(b1-3)GlcNAc
# How it was run: as §1
binder,measurement,setting,value
B1,glycan array binding signal (z-score),[1],-0.539
same,glycan array binding signal (z-score),[2],-0.513
same,glycan array binding signal (z-score),[3],-0.384
same,glycan array binding signal (z-score),[4],-0.587
same,glycan array binding signal (z-score),[5],0.69
same,glycan array binding signal (z-score),[6],0.062
same,glycan array binding signal (z-score),[7],-0.06
same,glycan array binding signal (z-score),[8],-0.359
same,glycan array binding signal (z-score),[9],-0.364
same,glycan array binding signal (z-score),[10],-0.059
same,glycan array binding signal (z-score),[11],0.434
same,glycan array binding signal (z-score),[12],-0.424
same,glycan array binding signal (z-score),[13],-0.584
same,glycan array binding signal (z-score),[14],-0.528
same,glycan array binding signal (z-score),Fuc(a1-3)GlcNAc,-0.237
same,glycan array binding signal (z-score),[15],-0.056
same,glycan array binding signal (z-score),[16],-0.091
same,glycan array binding signal (z-score),[17],0.514
same,glycan array binding signal (z-score),[18],0.203
same,glycan array binding signal (z-score),[19],-0.545
same,glycan array binding signal (z-score),[20],-0.428
same,glycan array binding signal (z-score),[21],0.387
same,glycan array binding signal (z-score),[22],-0.551
same,glycan array binding signal (z-score),[23],0.176
same,glycan array binding signal (z-score),[24],-0.001
same,glycan array binding signal (z-score),[25],-0.316
same,glycan array binding signal (z-score),[26],0.606
same,glycan array binding signal (z-score),[27],-0.14
same,glycan array binding signal (z-score),[28],0.022
same,glycan array binding signal (z-score),[29],-0.253
same,glycan array binding signal (z-score),[30],-0.195
same,glycan array binding signal (z-score),[31],-0.452
same,glycan array binding signal (z-score),Fuc(a1-4)GlcNAc,-0.037
same,glycan array binding signal (z-score),Fuc(b1-3)GlcNAc,-0.15
same,glycan array binding signal (z-score),Gal(a1-2)Gal,-0.295
same,glycan array binding signal (z-score),Gal(a1-3)Gal,-0.473
same,glycan array binding signal (z-score),Gal(a1-3)Gal(b1-3)GlcNAc,3.11
